This note sets out measurements from the supplement of paper PMC11417369.

The list shows a part of the results.

This assay relates to PfHDP1 homeodomain (GST-tagged). Kind of assay: gcPBM binding intensity (ln(normalized median fluorescence intensity)); higher = stronger DNA binding. A digest of the protocol:
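Using an Agilent 4 × 180k array, primer-extended double-stranded 36-bp intergenic genomic probes and negative controls were exposed for 1 h to GST-fused P. falciparum DNA-binding domains expressed in E. coli. Binding was carried out in 1× PBS with 1% milk, 0.2 mg/ml BSA, 0.5% salmon testes DNA and 0.03% Triton X-100, and protein was detected with Alexa488 anti-GST antibody and a 488 nm scan. Binding intensity is the highest Masliner-normalised natural-log median intensity across replicate spots of either probe orientation.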
Take “GCATAAATCAGACACACACACATATATAAATATGTA [CACACA_site7187]”: the “gcPBM binding intensity (ln)” value was found to be 6.58.

As to “TAATATGAAAAGTGTACACACGCACAGACAAAAAAA [CACACA_site5594]”, the “gcPBM binding intensity (ln)” value was found to be 7.66.

Regarding “TGTTTATTTTTTTTATGTACTTATTTTTTATTGCAT [XGTACX_site719]”, the “gcPBM binding intensity (ln)” value was 7.02.

For the sequence “ATAAATATATGGTTTCATTATATTAAATTCAATTTA [CACACA_negctrl_site213]”, the “gcPBM binding intensity (ln)” value came to 5.83.

Regarding “GATTTTCATATTTTTTGTACTTACATTTTTCTATAC [XGTACX_site6002]”, the “gcPBM binding intensity (ln)” value was 6.59.

On to “ATAAAATCTTAATCAACAAACAAACAAAAAAAAAAT [CACACA_negctrl_site1161]”, for which the “gcPBM binding intensity (ln)” value amounted to 6.66.

As to “TATGTGATATATTTATCACACATTATATATATATAT [CACACA_site5103]”, the “gcPBM binding intensity (ln)” value stood at 8.89.

For the sequence “ATGGGGAATAATGAATGTACACAAATAAAAAGTTGG [XGTACX_site4015]”, the “gcPBM binding intensity (ln)” value is 7.28.

On to “ATCTAAACCTTTTGAGCACACATATATATATATATA [CACACA_site8526]”, for which the “gcPBM binding intensity (ln)” value is 9.33.

As for “AATCATTTATGGAAAGCATGCTAAATTAGAGTATAC [TGCATGCA_site172]”, the “gcPBM binding intensity (ln)” value turned out to be 6.99.

As to “TAATATCATTTAGACACACACTCTTACAATCTGTAA [CACACA_site2590]”, the “gcPBM binding intensity (ln)” value came out at 6.43.

Turning to “TAATTTTTTTAAAACACACAAATATGTAAATATGTA [CACACA_site7769]”, the “gcPBM binding intensity (ln)” value is 6.15.

Regarding “TAAAAATAAAAATAACGTACATACATACTTATATAT [XGTACX_site3745]”, the “gcPBM binding intensity (ln)” value is 6.01.

“AGTATAGTTATAAATTGTACATATTATTTATTTTAT [XGTACX_site949]”: the “gcPBM binding intensity (ln)” value came out at 6.35.

As to “TAAGTCGCCAAAAGGTGTACACATAATGCATTATCA [XGTACX_site8852]”, the “gcPBM binding intensity (ln)” value was 7.6.

As to “TTTTTTTTTTGTAATTGTACTTTTTTAATACTTCTA [XGTACX_site4195]”, the “gcPBM binding intensity (ln)” value was found to be 6.3.

Turning to “TATATATATATATTCACACATAAATATATGCACCCA [CACACA_site4263]”, the “gcPBM binding intensity (ln)” value came to 11.

Turning to “TATACATATATATACACACACATATATATATATATA [CACACA_site4]”, the “gcPBM binding intensity (ln)” value came to 9.46.

For “ATTTTTGTGACTAAGACATGCATAAGAGTAAAGAAA [TGCATGCA_site619]”, the “gcPBM binding intensity (ln)” value turned out to be 7.44.

For “ACATATATTATATAACGTACATAACACTATTTCCTT [XGTACX_site6938]”, the “gcPBM binding intensity (ln)” value came to 6.71.

Consider “AATAAATATAAATACACACCCATATATATATATATA [CACACA_site5436]”, for which the “gcPBM binding intensity (ln)” value came out at 9.42.

Regarding ACCAATAAATATTTGGTGCATACATATATATATATA, the “gcPBM binding intensity (ln)” value was found to be 10.5.

With “TTAAAAAAAAAAAAAAGTACACACTTATAAAATATT [XGTACX_site1630]”, the “gcPBM binding intensity (ln)” value came to 6.31.

Regarding “TCATACCTACATAAAAAAAGGGAAACAAAATGTCAT [XGTACX_negctrl_site34]”, the “gcPBM binding intensity (ln)” value was 6.12.

For “TATTATAATGACTATAGTACATAATATTATTTATAT [XGTACX_site1977]”, the “gcPBM binding intensity (ln)” value turned out to be 6.54.

“ATAGAACTGAATAAATCTATAAATAAATATATATAT [GTGCAC_negctrl_site604]”: the “gcPBM binding intensity (ln)” value was found to be 7.87.

Regarding “CTCCACAAACAAATCGCACACCCAACCCAACATATA [CACACA_site2650]”, the “gcPBM binding intensity (ln)” value was 6.7.

Take “ACCTACACAAGCATTAAACACACAAAAGGGATACTT [CACACA_site8273]”: the “gcPBM binding intensity (ln)” value amounted to 6.89.

“ACCTAATTTTTATATTGTACATAATATAATATATAT [XGTACX_site1715]”: the “gcPBM binding intensity (ln)” value turned out to be 6.61.

For “ACAAGAACAGAACGTACACACACATATATATATATA [CACACA_site9143]”, the “gcPBM binding intensity (ln)” value is 9.18.

As to “AAATATTACATACACGCACACATTAATATATTTAAA [CACACA_site2603]”, the “gcPBM binding intensity (ln)” value is 7.25.

Consider “ACATATACATTTATATGTACTCATTTATCTTATGTA [XGTACX_site6594]”, for which the “gcPBM binding intensity (ln)” value came to 6.46.

“TTTTTTAAAACTTCAAAAAGAGCACTTGAATTTTTT [GTGCAC_negctrl_site455]”: the “gcPBM binding intensity (ln)” value was 5.95.

For “AACTAAATTTATAATTGTACATTAAAATATGTATTA [XGTACX_site479]”, the “gcPBM binding intensity (ln)” value was 6.25.

“TACATAAACATTTATACACACATTAGATATACATAT [CACACA_site6329]”: the “gcPBM binding intensity (ln)” value amounted to 6.77.

Turning to “CTAAATAAAGTTAACACACACATAATATTTATATGT [CACACA_site6368]”, the “gcPBM binding intensity (ln)” value amounted to 6.33.

Take TCAAAGAGTAGAAAGGTGCTTATGAACGAGATAATT: the “gcPBM binding intensity (ln)” value was 6.19.

Take “TATTATAATTTTATATGTACACATATATAAATATAT [XGTACX_site4054]”: the “gcPBM binding intensity (ln)” value was found to be 6.29.

Take “TTTTACATATATATATGTACGAAAATGAAAAGGTCA [XGTACX_site5576]”: the “gcPBM binding intensity (ln)” value turned out to be 7.22.

Regarding “AAAGTTACATTCGACACACACATAACAACTAAATAA [CACACA_site3419]”, the “gcPBM binding intensity (ln)” value was determined as 6.66.

As to “TTTATTTATTAATACACACACACACCCCCACAAAAT [CACACA_site240]”, the “gcPBM binding intensity (ln)” value worked out at 8.23.

As to “TATCATTTGGTCTTTTACTTTTTCTGTTTTTTTTTT [CACACA_negctrl_site976]”, the “gcPBM binding intensity (ln)” value came out at 6.68.

Take “TTTTTTACTATATCAATTACAAAACAAAAAAAAAAA [GTGCAC_negctrl_site683]”: the “gcPBM binding intensity (ln)” value turned out to be 6.26.

Take “TGATAAAATATTAAATTATTTCTTTATTTAAAGATT [CACACA_negctrl_site370]”: the “gcPBM binding intensity (ln)” value came to 5.71.

Turning to “AAATATGTTTCAAAAAGTACATTTCTATCTTTTTTT [XGTACX_site7178]”, the “gcPBM binding intensity (ln)” value came to 6.53.

Regarding “AATATGCCTCCCCAAAAAAAATATATATATATTTAT [GTGCAC_negctrl_site716]”, the “gcPBM binding intensity (ln)” value was 7.73.

With “TGGTTATAATTGTACGCATGTAATTACATATTCTCT [TGCATGCA_site599]”, the “gcPBM binding intensity (ln)” value stood at 6.7.

In the case of “TATATTTAAATATATACACACATTATCATTTTCATA [CACACA_site1708]”, the “gcPBM binding intensity (ln)” value stood at 6.66.

“GAAAAGATTTAAAAATGTACAAAAGAAAAAAAAAAA [XGTACX_site6916]”: the “gcPBM binding intensity (ln)” value came to 6.18.

For “TTAAAATTAAAATACGTACACACCTTATCTTTTTGG [CACACA_site7982]”, the “gcPBM binding intensity (ln)” value is 6.26.

Take “TCTTACAAGGAACTAATAAAATTGTAGTTTGTATTT [CACACA_negctrl_site386]”: the “gcPBM binding intensity (ln)” value turned out to be 6.11.

On to “AAGTATTTCCTAAAATGTACATATAAATAAGTATAT [XGTACX_site1282]”, for which the “gcPBM binding intensity (ln)” value came to 6.27.

“AAATCTTAATAAAGTTGTACATAATTATGTTTAATA [XGTACX_site3348]”: the “gcPBM binding intensity (ln)” value was 6.31.

As for “TTATTATTTATTTTTTATTATTATTATTTTTTTTTA [XGTACX_negctrl_site76]”, the “gcPBM binding intensity (ln)” value was 6.3.

Regarding “CATATATTTTGAAACACACACATATAAAATATACAT [CACACA_site6664]”, the “gcPBM binding intensity (ln)” value was determined as 6.81.

On to “AAAATACATGGACACACACACACACCGATATATATA [CACACA_site5885]”, for which the “gcPBM binding intensity (ln)” value was 6.97.
